Source: PubChem BioAssay AID1345082 (National Center for Advancing Translational Sciences (NCATS), 2018)
The whole screen tested about 94,000 compounds, of which about 4,000 (4.3%) were called active. The shares of active, inactive and inconclusive entries below differ from those in the screen. Calls come from the whole dose curve; as a rule, active = well fitted inhibition curve with a large enough effect; inconclusive = small, poorly fitted or top-dose-only effect; inactive = no such curve, though single readings can be large or run the other way. Potencies of inconclusive entries are doubtful fits and often do not repeat.

Test: Cytotoxic Profiling in NIH 3T3 Cell Line of Diverse Libraries Using Quantitative High-Throughput Screening; note: nearly all actives have a fitted effect of over 55% in size
Settings: NIH 3T3 viability, CellTiter-Glo ATP luminescence, 48-72 h; series mostly up to 96.7 µM
Method in brief: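 Cytotoxicity is measured as loss of cellular ATP: NIH 3T3 cells (400/well) are exposed to compound for 48 or 72 hr at 37 °C, then CellTiter-Glo luminescence is imaged after 10 min at room temperature.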
Potency is the fitted concentration of half-maximal effect; tags give direction and shape of the fitted curve.

| SMILES | Potency |
| --- | --- |
| Cc1cccc(C)c1N1CC(OCc2cccc(C(=O)O)c2)c2ccccc2[S+]1(=O)[O-] (stereo not given) | inconclusive: 44.7 µM [inhibitor, partial curve, poor fit] |
| Cc1cn2nc(C(=O)NCc3ccc(C(C)C)cc3)cc2c(N2CCCC2)n1 | inconclusive: 70.8 µM [inhibitor, single point] |
| Cc1noc(-c2ccccc2Cl)c1C(=O)NCCCOC(C)C | inactive |
| COc1ccc(-c2nc(-c3ccccc3)nc3c2CN(C(=O)c2ccccc2C)CC3)cc1 | inconclusive: 28.2 µM [inhibitor, partial curve] |
| CN(CC1(C)CCOCC1)C(=O)c1ccc2c(c1)OCO2 | inactive |
| O=C(c1ccccc1)N1CCn2c(nnc2-c2ccc(Cl)cc2)C1 | inconclusive: 44.7 µM [inhibitor, partial curve, poor fit] |
| Cc1noc2c(NC(C)C)cc(-c3cccnc3)nc12 | active: 39.8 µM |
| CCOC(=O)c1ccc(NC(=O)N2Cc3[nH]cnc3C[C@H]2c2nc(-c3ccc4c(c3)OCO4)no2)cc1 | active: 28.2 µM |
| Oc1ccccc1CN1C[C@H](O)C[C@H]1c1nc(Cc2ccc(F)cc2Cl)no1 | inconclusive: 89.1 µM [inhibitor, partial curve, poor fit] |
| CCn1nccc1C(=O)NCCc1ncc(C)n1Cc1ccccc1 | inactive |
| O=C1COCC2(CN1)CN(C(=O)c1ccc(Cl)cc1)C2 | inactive |
| FC(F)(F)Oc1ccc(CN2CCOC[C@H](Oc3cccnc3)C2)cc1 | inconclusive: 56.2 µM [inhibitor, partial curve, poor fit] |
| CC(=O)NC1CCN(Cc2ccc(-c3ccsc3)cc2)C1 (stereo not given) | inconclusive: 63.1 µM [inhibitor, partial curve, poor fit] |
| COCCn1nc2n(c1=O)CCN(Cc1ccc3cc[nH]c3c1)CC2 | inactive |
| COc1ccc(-c2[nH]ncc2CN2CCCCCNC(=O)[C@@H]3CCC[C@@H]32)cc1 | inconclusive: 50.1 µM [inhibitor, partial curve, poor fit] |
| CC(=O)N1CCC(N2CC[C@@H](CO)N(C)c3nc(C)ccc3C2)CC1 | active: 44.7 µM |
| Cc1ccc(-c2cccc(CN3CCCC(N[S+](C)(=O)[O-])C3)c2)cc1Cl (stereo not given) | active: 28.2 µM |
| CN(C)C(=O)C1CCN(c2ccnc3ccnn23)CC1 | inactive |
| CCCNC(=O)Cc1ccc(N(Cc2cccc(F)c2)C(=O)c2ccco2)cc1 | inactive |
| N#Cc1ccc(C(=O)N2C[C@@H](Oc3ccccc3)C[C@H]2C(=O)N2CCCC2)cc1 | inactive |
| COc1ccc([C@@H]2CN(C(=O)CCc3c(C)noc3C)C[C@H]2N(C)C)cc1 | inactive |
| Cc1nc(N2CCC(NC(=O)c3cc4ccccc4[nH]3)CC2)cc(C(F)(F)F)n1 | inconclusive: 39.8 µM [inhibitor, partial curve, poor fit] |

| SMILES | Potency |
| --- | --- |
| COCc1cc(CN(C)C(=O)CCc2cc3n(n2)CCNC3)[nH]n1 | inactive |
| COc1ccc(-c2cn(C)c(=O)n3cc(COc4ccc(Cl)cc4)nc23)c(C)c1 | active: 10 µM |
| CN1C[C@@H](NC(=O)c2ccc(C(C)(C)C)cc2)C[C@H]1c1nc(-c2ccncc2)no1 | inconclusive: 79.4 µM [inhibitor, partial curve] |
| Cn1ncc2c(C(=O)Nc3cccnc3)cc(-c3ccccc3C(F)(F)F)nc21 | inactive |
| CCN1CCC(OCCCNC(=O)CCC[C@H]2NC[C@@H]3C[C@H]2CN(Cc2ccccc2)C3)CC1 | inactive |
| CN(C)c1nc(NC2CC(c3cc(=O)[nH]c(C4CC4)n3)C2)ncc1F (stereo not given) | inconclusive: 50.1 µM [inhibitor, partial curve, poor fit] |
| O=C(CNC(=O)c1cccc(-c2ccc(C(F)(F)F)cc2)c1)NCc1cccc(Cl)c1 | inconclusive: 31.6 µM [inhibitor, full curve] |
| CCN(CC)C(=O)C(NC(=O)c1cccc(OC)c1)C1CCN(C(=O)c2ccc3c(c2)OCO3)CC1 (stereo not given) | inconclusive: 50.1 µM [inhibitor, partial curve, poor fit] |
| C#CCOc1ccc(C(=O)N[C@@H]2CN(Cc3ccc(C(=O)O)cc3)CCC[C@H]2O)cc1 | inconclusive: 100 µM [inhibitor, partial curve, poor fit] |
| Cc1nn(-c2ccccc2)c2c1C(C(C)C)N(C1CCN(C(=O)Cc3ccc(F)cc3)C1)C2=O (stereo not given) | inconclusive: 44.7 µM [inhibitor, partial curve] |
| O=C(CCC1CCCN(S(=O)(=O)c2ccccc2)C1)NCc1ccc(Cl)cc1 (stereo not given) | inconclusive: 50.1 µM [inhibitor, partial curve, poor fit] |
| O=C(NCc1cccc(Cl)c1)[C@@H]1C[C@H](c2ccc(F)cc2)N([S+](=O)([O-])C2CC2)C1 | inconclusive: 79.4 µM [inhibitor, partial curve, poor fit] |
| O=C(CSc1ccncc1)N1CCCC(O)(CN2CCCC2)C1 (stereo not given) | inactive |
| N[C@H]1CN(C(=O)c2ccc(N3CCCCC3)cc2)C[C@@H]1c1ccccc1 | inconclusive: 89.1 µM [inhibitor, single point] |
| COCCN(CC1CC1)C(=O)c1ccc2nc(-c3ccc(F)cc3)cn2c1 | inactive |
| O=C(c1ccc2[nH]ccc2c1)N1CCC2(CC1)N=C(c1cccc(Br)c1)NO2 | inconclusive: 70.8 µM [inhibitor, single point] |
| O=C(NCc1cc(F)ccc1F)c1cccnc1N1CC2CC(C1)[C@H]1CCCC(=O)N1C2 (stereo not given in full) | inactive |
| CCCS(=O)(=O)N[C@H]1CO[C@H]2[C@@H]1OC[C@H]2OC(=O)Nc1ccc(C(C)=O)cc1 | inactive |
| O=C(COc1ccccc1)N1CCCN(c2cc(-c3ccc(Br)cc3)[nH]n2)CC1 | inconclusive: 39.8 µM [inhibitor, partial curve, poor fit] |
| O=C(Cc1ccccc1Br)N1CCCN(c2cc(-c3ccc(F)cc3)[nH]n2)CC1 | inconclusive: 44.7 µM [inhibitor, partial curve, poor fit] |
| COC(=O)CNC(=O)c1cc(-c2ccc(Cl)cc2Cl)c2cccn2n1 | inconclusive: 50.1 µM [inhibitor, partial curve, poor fit] |
| O=Cc1ccccc1-c1cnc2ccccc2c1 | active: 79.4 µM |

| SMILES | Potency |
| --- | --- |
| O=C(N[C@H]1[C@H]2CCO[C@H]2[C@@H]1N1CCCC1)c1cc2c(s1)CCCCC2 | inactive |
| C=CCOC(=O)C1=C(C)N=C2SC=C(CC(=O)NCc3ccc(F)cc3)N2C1c1ccccc1C (stereo not given) | inconclusive: 50.1 µM [inhibitor, partial curve, poor fit] |
| CCOc1ccc(CC(=O)NC2CCN(c3cc(-c4cccs4)[nH]n3)C2)cc1OCC (stereo not given) | inconclusive: 44.7 µM [inhibitor, partial curve, poor fit] |
| COc1ccc(CN2C[C@@H](C(N)=O)[C@H](c3nc(C)no3)C2)cc1Cn1ccnc1 | inactive |
| Cc1ccc(C)c(CNC(=O)CCc2conc2-c2ccc(F)cc2)c1 | inconclusive: 50.1 µM [inhibitor, partial curve, poor fit] |
| Cc1noc(C)c1[S+](=O)([O-])N1CCCC1C(=O)N1CCC(c2nc3ccncc3[nH]2)CC1 (stereo not given) | inactive |
| CC(C)(C)CC(=O)N1C[C@@H](CO)[C@H](c2nc(-c3ccncc3)no2)C1 | inactive |
| CC1(CCCCN2CCOCC2)COc2ccc(C(=O)Nc3ccc(Cl)cc3)cc2N1 (stereo not given) | inconclusive: 44.7 µM [inhibitor, partial curve, poor fit] |
| O=C(NC1CC1)C1CCCCN1Cc1ccc(-c2cccs2)cc1 (stereo not given) | inconclusive: 44.7 µM [inhibitor, partial curve, poor fit] |
| COc1ccc(NC(=O)N[C@H]2CO[C@H]3[C@@H]2OC[C@@H]3n2cc(CC3CCCCC3)nn2)cc1 | inactive |
| CCc1nnc(CN2CCC(C(=O)Nc3cccc(-c4ccco4)c3)CC2)o1 | inconclusive: 89.1 µM [inhibitor, single point] |
| COc1cncc(-c2cn(C)c(=O)n3cc(CNc4ccccc4)nc23)c1 | inconclusive: 56.2 µM [inhibitor, partial curve, poor fit] |
| O=C(c1ccccc1)N1Cc2ccccc2CC2(CCN(Cc3ccc(O)cc3)CC2)C1 | inconclusive: 44.7 µM [inhibitor, partial curve, poor fit] |
| Cn1ncc2c(C(=O)NCc3cccnc3)cc(-c3ccc(Cl)cc3Cl)nc21 | inconclusive: 44.7 µM [inhibitor, partial curve, poor fit] |
| Cc1oc(C(O)c2ccccc2)nc1C(=O)Nc1ccc2c(c1)CC(=O)N2 (stereo not given) | inconclusive: 100 µM [inhibitor, partial curve, poor fit] |
| O=C(Cc1ccc(F)cc1)N1CCC2(CC1)CCN(Cc1cccs1)c1ccccc1O2 | inactive |
| CCn1c2c(c(=O)n1-c1ccccc1)CCN(C(=O)c1cccc(N(C)C)c1)C2 | inconclusive: 112 µM [inhibitor, single point] |
| Cc1ccc(-c2noc([C@@H]3Cc4nc[nH]c4CN3Cc3ccc(CO)o3)n2)cc1 | inactive |
| c1ccc2c(CN3CC(Oc4ccc5c(c4)OCO5)C3)cccc2c1 | inconclusive: 70.8 µM [inhibitor, single point] |
| O=C(NCc1cccs1)c1cc(Br)cn2ccnc12 | inconclusive: 56.2 µM [inhibitor, partial curve, poor fit] |
| C[C@@]12CO[C@@H](CNC(=O)C3CCCC3)O[C@@H]1CC[C@]1(C)[C@@H]2CC[C@@H](O)[C@H]1CC(=O)NCc1ccc(F)cc1 | inconclusive: 89.1 µM [inhibitor, single point] |
